These results are taken from the supplement of paper PMC3334620.

Whole data set: some 33,000 sequences, median “E-score (-0.5 to 0.5)” near -0.01, cut for the highest 2% near 0.26. Some of the results follow.

In this assay the target is Ste12 (UniProt P13574). Kind of assay: PBM E-score (8-mer binding enrichment) (E-score (-0.5 to 0.5)); higher = stronger / more preferred TF binding; most listed sequences are background and not binding sites. Particulars: protein concentration: 200 nM; construct: GST-DNA-binding domain. The method in brief: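 Yeast transcription factors carrying a GST tag, as full-length proteins or DNA-binding domains, were produced by PURExpress in vitro transcription/translation. About 100-200 nM protein was applied to universal all-10-mer Agilent arrays, double-stranded by primer extension on fresh or once-stripped slides. Bound protein was detected with fluorescent anti-GST, and scans were normalised with masliner. The Universal PBM Analysis Suite gave each ungapped eight-base word, pooled with its reverse complement, an E-score, a modified Wilcoxon-Mann-Whitney statistic.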
On to AGCTGGAG, for which the “PBM E-score” value was -0.19.

With ATGCGCCC, the “PBM E-score” value amounted to 0.00532. The figure for ATCGTTTA is 0.106. With ACAATTCC, the “PBM E-score” value is 0.104. The result for ACAACGAA reads 0.00716. Turning to ACTCGCGA, the “PBM E-score” value stood at 0.155. The figure for GACGCGCC is -0.0274; for AGCAGCAG it is -0.0392; for CGACCACA it is -0.156. With CGCCGAAG, the “PBM E-score” value is -0.106. For the sequence ACCACTGG, the “PBM E-score” value was -0.13.

Turning to GCCCAGGC, the “PBM E-score” value was -0.0234. The figure for ACTGCAAT is 0.109; for CTAACGCC it is 0.089; for ATTCTACA it is 0.145.

Consider AAATTGGG, for which the “PBM E-score” value turned out to be 0.0547. Turning to AGAGGGCC, the “PBM E-score” value was -0.168. Regarding TACTTAGA, the “PBM E-score” value is -0.109. Regarding ACCAGGCA, the “PBM E-score” value is -0.113. Consider ACATTGGG, for which the “PBM E-score” value was 0.00627.

On to GTGGGATA, for which the “PBM E-score” value is 0.152.

For ATCAGTGG, the “PBM E-score” value is -0.0578. For AGGGTTAT, the “PBM E-score” value amounted to 0.0845. The result for CCATGAGA reads 0.164; that for GCTATGTA, -0.101. The result for CAAAATGC reads -0.0253. On to AGCCTGTC, for which the “PBM E-score” value was -0.181. The figure for AATATGGC is -0.00863. Regarding AGTGCACA, the “PBM E-score” value is 0.071. Take AGAGAGCC: the “PBM E-score” value was -0.0937. As to TAACCTGA, the “PBM E-score” value is 0.127.

For ATGTTTTA, the “PBM E-score” value turned out to be 0.374. On to AGCATCTG, for which the “PBM E-score” value is -0.159. The result for CAGTAACA reads -0.0198. For the sequence CCAAGCCC, the “PBM E-score” value is -0.153. GTTGCGGA: the “PBM E-score” value was found to be 0.00365.

As for TTGATCAA, the “PBM E-score” value was 0.261. The figure for ACGGACGA is 0.0822; for CCGCAGTC it is -0.176. The result for CCTTACAG reads -0.17. With TACAACCA, the “PBM E-score” value was determined as 0.112. Turning to CTTTTATA, the “PBM E-score” value amounted to 0.0308. ACGAATCC: the “PBM E-score” value stood at 0.113. Consider AGCTCTCC, for which the “PBM E-score” value is -0.131.

Take ACCGATCC: the “PBM E-score” value is -0.192. Consider CTGCACGA, for which the “PBM E-score” value worked out at 0.0398. With AAACGTTT, the “PBM E-score” value was 0.283.

Regarding AGCTCGTG, the “PBM E-score” value is -0.00111.

Consider GCCTCCAC, for which the “PBM E-score” value was -0.223. The figure for CATACCGC is 0.0232; for CCTTTAGC it is -0.163.

Turning to AATGGGCG, the “PBM E-score” value was determined as 0.0848. The result for AAGAGTTA reads -0.0507; that for CGAGCCTA, -0.172; that for AAACAGTA, 0.171. The figure for GCATATGA is 0.0387; for GACACAAC it is 0.0341. GTCACCAA: the “PBM E-score” value was -0.111. The result for AATGGGGA reads -0.0112. The figure for TGGGGGAA is -0.0866; for CCACGGTA it is -0.0295; for ACGCGCTG it is 0.166. The figure for CCTCGATC is 0.143; for CGATACGC it is 0.0684. Consider TCCTAGAA, for which the “PBM E-score” value came to 0.0487. For ATAGGGCC, the “PBM E-score” value is -0.217. For TCCGGGCA, the “PBM E-score” value came out at 0.0238.

Take CCGAGTTC: the “PBM E-score” value worked out at 0.012.

As for AAGCGCGC, the “PBM E-score” value stood at 0.0933. For ACGTGCTG, the “PBM E-score” value amounted to 0.0228.

Take GAAACCAA: the “PBM E-score” value was found to be 0.355. As to ACCCGTCC, the “PBM E-score” value was -0.0354. The result for CTGTGCCC reads -0.106. The figure for AGTGTTCA is 0.0929.

Take GAGGAGAC: the “PBM E-score” value was -0.28. On to CTTCATGA, for which the “PBM E-score” value is 0.0149. The result for ATATGACC reads 0.015; that for AGCAATCA, 0.0437.

For GAACGCTC, the “PBM E-score” value is -0.0903. The figure for AGCCCGCC is -0.0164. The figure for CTCTGTAC is -0.0997. In the case of ATCAGAAT, the “PBM E-score” value came to 0.191. The figure for CTACGTTC is -0.172. The figure for ACGCACCC is -0.118; for CAGCGAGC it is 0.112; for ATAGGAAT it is 0.0269. With AGGCAGGG, the “PBM E-score” value is -0.0634. Consider AGGAGAGG, for which the “PBM E-score” value is -0.234.

On to GAAATACC, for which the “PBM E-score” value is -0.0287.

GAAGCCCC: the “PBM E-score” value is -0.225. For CAGCATGG, the “PBM E-score” value is -0.0809. The figure for CAAGAAGC is -0.0436; for AGGCCTCA it is -0.326. The figure for AGTAAACA is 0.0888.
